Consider two molecules from US20160108110A1 (Novartis, published 2016).

For assay [1], the target named is T1, Human ANGPTL4(26-406)-FLAG-His6-Avi (human, UniProt Q9BY76 24-406, biotin on the C-terminal Avi tag in the biotinylated preparations (immobilised form in SET, ELISA and Octet)).
T1 sequence: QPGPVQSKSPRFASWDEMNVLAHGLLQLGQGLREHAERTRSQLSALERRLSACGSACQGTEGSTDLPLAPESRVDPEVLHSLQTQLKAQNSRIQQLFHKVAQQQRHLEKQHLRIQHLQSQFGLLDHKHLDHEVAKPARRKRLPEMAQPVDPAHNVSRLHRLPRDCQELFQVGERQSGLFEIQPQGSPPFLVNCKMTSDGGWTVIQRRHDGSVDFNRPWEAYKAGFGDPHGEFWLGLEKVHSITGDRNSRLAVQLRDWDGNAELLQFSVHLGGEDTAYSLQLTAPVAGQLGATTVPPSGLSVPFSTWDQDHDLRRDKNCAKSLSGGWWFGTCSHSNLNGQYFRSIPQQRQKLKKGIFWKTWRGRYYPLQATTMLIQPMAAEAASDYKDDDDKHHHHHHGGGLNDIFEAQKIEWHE
The assay is described as follows: cell-based or functional assay.

For assay [2], the target named is T1, Human ANGPTL4(26-406)-FLAG-His6-Avi. The assay can be described thus: SET assay (solution equilibrium titration, MSD), IgG. As to the method:
SET assays were performed as follows. In a 96-well polypropylene plate, a constant concentration of ANGPTL4 antibody was mixed with different concentrations of non-biotinylated human, cyno, mouse, or rat full-length ANPGLT4 protein, or human ANGPTL4 N-terminal domain protein (5-fold serial dilution) and incubated at 22° C. for 14 hours with constant shaking (300 rpm). On a pre-blocked 384-well streptavidin-coated Meso Scale Discovery (MSD) plate biotinylated ANGPTL4 (full-length human, cyno, mouse, or rat ANGPTL4, or human ANGPTL4 N-terminal domain) protein (1 nM, 15 μL per well) was immobilized and washed thereafter.
The equilibrium binding reactions (15 μL per well) were applied to the MSD plate with immobilized ANGPTL4 and incubated for 20 min at 22° C. The unbound material was removed by washing the plate 3 times with wash buffer, and the captured antibody was detected by adding Sulfo-tagged goat anti-human IgG (Meso Scale Discovery). After washing MSD read buffer T was added and the plate was developed using a Sector Imager 6000 (Meso Scale Discovery). The data were transferred to Microsoft Excel for analysis and plotted using GraphPad Prism v6. The KD values were determined by fitting the data to the following equation: […]

Assay [3] has the same target. The assay can be described thus: ForteBio Octet kinetic binding assay. (BLI is a label-free optical method that tracks binding on a fibre tip over time.)
Assay [4] addresses T2, Cynomolgus monkey ANGPTL4(26-406)-FLAG-His6-Avi (cynomolgus monkey, biotin on the C-terminal Avi tag (Octet)).
T2 construct: also called Cyno ANGPTL4 (26-406)
T2 chain: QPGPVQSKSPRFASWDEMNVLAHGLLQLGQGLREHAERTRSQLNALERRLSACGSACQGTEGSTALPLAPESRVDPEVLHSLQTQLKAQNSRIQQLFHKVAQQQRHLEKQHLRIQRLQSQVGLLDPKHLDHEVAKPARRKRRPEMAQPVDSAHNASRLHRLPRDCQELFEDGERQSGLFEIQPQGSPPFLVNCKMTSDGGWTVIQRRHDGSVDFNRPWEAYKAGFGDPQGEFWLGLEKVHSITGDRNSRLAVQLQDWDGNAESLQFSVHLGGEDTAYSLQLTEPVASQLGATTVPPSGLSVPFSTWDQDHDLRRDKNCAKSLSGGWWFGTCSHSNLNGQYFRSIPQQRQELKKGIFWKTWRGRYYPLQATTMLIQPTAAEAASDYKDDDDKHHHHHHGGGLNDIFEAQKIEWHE
The assay can be described thus: ForteBio Octet kinetic binding assay.

The target of assay [5] is T3, Mouse ANGPTL4(26-410)-FLAG-His6-Avi (mouse, UniProt Q9Z1P8 24-410, biotin on the C-terminal Avi tag in the immobilised form).
T3 sequence: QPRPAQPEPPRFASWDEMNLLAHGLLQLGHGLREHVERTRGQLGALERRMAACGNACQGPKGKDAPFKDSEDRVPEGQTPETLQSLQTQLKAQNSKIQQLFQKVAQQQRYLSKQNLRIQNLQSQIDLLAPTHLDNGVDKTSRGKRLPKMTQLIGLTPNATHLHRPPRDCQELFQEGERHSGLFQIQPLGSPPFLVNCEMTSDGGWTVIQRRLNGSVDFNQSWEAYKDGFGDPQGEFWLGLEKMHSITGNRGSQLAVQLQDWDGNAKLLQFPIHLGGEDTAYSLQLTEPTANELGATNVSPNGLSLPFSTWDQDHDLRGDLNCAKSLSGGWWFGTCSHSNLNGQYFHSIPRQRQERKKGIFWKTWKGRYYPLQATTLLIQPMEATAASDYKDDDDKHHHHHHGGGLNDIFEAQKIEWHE
The assay can be described thus: ForteBio Octet kinetic binding assay.

The target in assay [6] is T4, Rat ANGPTL4(24-405)-FLAG-His6-Avi (rat, UniProt Q6TMA8 24-405, biotin on the C-terminal Avi tag (Octet)).
T4 sequence: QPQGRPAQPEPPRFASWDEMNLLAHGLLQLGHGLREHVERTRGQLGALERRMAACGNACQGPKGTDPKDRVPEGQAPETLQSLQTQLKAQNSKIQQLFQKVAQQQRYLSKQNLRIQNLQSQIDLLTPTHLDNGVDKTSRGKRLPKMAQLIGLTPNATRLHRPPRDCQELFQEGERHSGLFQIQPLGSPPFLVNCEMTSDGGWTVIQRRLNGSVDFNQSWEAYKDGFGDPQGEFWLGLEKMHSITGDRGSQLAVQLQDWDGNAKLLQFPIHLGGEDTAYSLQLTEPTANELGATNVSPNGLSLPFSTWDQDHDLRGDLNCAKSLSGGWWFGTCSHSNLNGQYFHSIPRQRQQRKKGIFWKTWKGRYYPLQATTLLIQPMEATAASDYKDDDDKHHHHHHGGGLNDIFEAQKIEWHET
The assay is described as follows: ForteBio Octet kinetic binding assay.

Assay [7] addresses T5, Human ANGPTL3(17-460)-FLAG-His-Avi (human, UniProt Q9Y5C1 17-460, biotin on the C-terminal Avi tag).
T5 construct: also called full length human ANGPTL3; hANGPTL3
T5 sequence: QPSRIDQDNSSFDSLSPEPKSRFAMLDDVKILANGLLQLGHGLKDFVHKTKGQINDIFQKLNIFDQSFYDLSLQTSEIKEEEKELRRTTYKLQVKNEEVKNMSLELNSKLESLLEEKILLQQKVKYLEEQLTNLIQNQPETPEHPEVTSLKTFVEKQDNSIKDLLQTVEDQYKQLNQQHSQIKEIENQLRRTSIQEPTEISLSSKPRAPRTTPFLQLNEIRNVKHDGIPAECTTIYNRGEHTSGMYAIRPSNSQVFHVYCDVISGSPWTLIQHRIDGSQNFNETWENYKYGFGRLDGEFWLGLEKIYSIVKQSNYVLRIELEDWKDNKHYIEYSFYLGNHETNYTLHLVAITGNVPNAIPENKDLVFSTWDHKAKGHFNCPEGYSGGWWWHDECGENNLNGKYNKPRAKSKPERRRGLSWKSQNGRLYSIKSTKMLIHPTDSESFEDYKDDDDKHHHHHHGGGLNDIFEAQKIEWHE
The assay can be described thus: ForteBio Octet kinetic binding assay; Average KD.

The target of assay [8] is T6, Cyno ANGPTL3 (17-460) (cynomolgus monkey, UniProt A0A2K5UDC5 17-460).
T6 construct: range 17-460; preparation not described
T6 sequence: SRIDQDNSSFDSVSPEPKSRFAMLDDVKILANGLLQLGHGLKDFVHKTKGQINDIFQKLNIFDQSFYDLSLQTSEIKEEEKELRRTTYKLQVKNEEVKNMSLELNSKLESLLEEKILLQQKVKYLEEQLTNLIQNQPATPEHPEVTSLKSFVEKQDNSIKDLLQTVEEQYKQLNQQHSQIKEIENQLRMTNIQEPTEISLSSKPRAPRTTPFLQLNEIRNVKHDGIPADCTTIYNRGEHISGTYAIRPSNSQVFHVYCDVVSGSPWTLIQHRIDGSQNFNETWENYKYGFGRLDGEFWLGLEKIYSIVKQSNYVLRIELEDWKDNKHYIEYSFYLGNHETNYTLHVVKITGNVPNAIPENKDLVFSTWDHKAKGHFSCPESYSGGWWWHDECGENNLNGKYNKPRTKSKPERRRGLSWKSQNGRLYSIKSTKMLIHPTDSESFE
The assay is described as follows: ForteBio Octet kinetic binding assay; Average KD.

The target in assay [9] is T1, Human ANGPTL4(26-406)-FLAG-His6-Avi. The assay is described as follows: ForteBio Octet kinetic binding assay; Average KD of the replicates.
The target of assay [10] is T2, Cynomolgus monkey …. The assay is described as above.
The target in assay [11] is T3, Mouse ANGPTL4(26-410)-FLAG-His6-Avi. The assay is described as above.
The target of assay [12] is T4, Rat ANGPTL4(24-405)-FLAG-His6-Avi. The assay is described as above.

Where “and” joins values, the source holds several entries; their conditions need not be identical. Identical values can stand only once.

For orientation: Kd means the constant that tells how readily two partners part at equilibrium. Usually koff stands for the first-order rate constant of dissociation. The term kon denotes the rate constant with which the complex forms.

B1: MOR022770 (antibody, human IgG1, kappa)
heavy: EVQLLESGGGLVQPGGSLRLSCAASGFTFSSYWMHWVRQAPGKGLEWVSGISYEGSSTNYADSVKGRFTISRDNSKNTLYLQMNSLRAEDTAVYYCARDSYIYDLHWGFDNWGQGTLVTVSSASTKGPSVFPLAPSSKSTSGGTAALGCLVKDYFPEPVTVSWNSGALTSGVHTFPAVLQSSGLYSLSSVVTVPSSSLGTQTYICNVNHKPSNTKVDKRV[gap - human IgG1 Fc]
light: DIQMTQSPSSLSASVGDRVTITCRASQDISSYLNWYQQKPGKAPKLLIYAASRLQSGVPSRFSGSGSGTDFTLTISSLQPEDFATYYCQQSYTHPYTFGQGTKVEIKRTVAAPSVFIFPPSDEQLKSGTASVVCLLNNFYPREAKVQWKVDNALQSGNSQESVTEQDSKDSTYSLSSTLTLSKADYEKHKVYACEVTHQGLSSPVTKSFNRGEC
notes: human IgG1
In the case of B1, the “Reversal of human ANGPTL4 inhibition of human LPL EC50” value in [1] amounted to 4 nM. The molecule also showed a Kd in [2] of 0.017 nM.

B2: MOR022770-LALA (antibody, human IgG1, kappa)
heavy: EVQLLESGGGLVQPGGSLRLSCAASGFTFSSYWMHWVRQAPGKGLEWVSGISYEGSSTNYADSVKGRFTISRDNSKNTLYLQMNSLRAEDTAVYYCARDSYIYDLHWGFDNWGQGTLVTVSSASTKGPSVFPLAPSSKSTSGGTAALGCLVKDYFPEPVTVSWNSGALTSGVHTFPAVLQSSGLYSLSSVVTVPSSSLGTQTYICNVNHKPSNTKVDKRV[gap - human IgG1 Fc with changes]
light: DIQMTQSPSSLSASVGDRVTITCRASQDISSYLNWYQQKPGKAPKLLIYAASRLQSGVPSRFSGSGSGTDFTLTISSLQPEDFATYYCQQSYTHPYTFGQGTKVEIKRTVAAPSVFIFPPSDEQLKSGTASVVCLLNNFYPREAKVQWKVDNALQSGNSQESVTEQDSKDSTYSLSSTLTLSKADYEKHKVYACEVTHQGLSSPVTKSFNRGEC
notes: also called MOR22770-LALA; MOR02770-LALA
For the molecule B2, the “Reversal of human ANGPTL4 inhibition of human LPL EC50” value in assay [1] was found to be 1 nM. Besides, the Kd in assay [3] is 0.159 nM and 0.076 nM and 0.13 nM and 0.103 nM; in assay [4] it was 0.235 nM and 0.112 nM; in assay [5], 0.994 nM and 0.458 nM; in [6], 0.405 nM and 0.427 nM and 0.537 nM; in assay [7], > 5 nM; in assay [8], > 5 nM. The dissociation constant (Kd) in assay [2] was determined as 0.022 nM; in assay [9], 0.117 nM; in assay [10] it was 0.174 nM; in assay [11], 0.726 nM; in assay [12], 0.456 nM. Further, the koff in [3] is 3e-05 s⁻¹ and 1.4e-05 s⁻¹ and 2.5e-05 s⁻¹ and 2.9e-05 s⁻¹; in assay [4], 4.7e-05 s⁻¹ and 2.2e-05 s⁻¹; in assay [5], 6.1e-05 s⁻¹ and 0.00014 s⁻¹; in [6], 3.1e-05 s⁻¹ and 3.4e-05 s⁻¹ and 2.8e-05 s⁻¹. The kon in assay [3] was 180000 M⁻¹ s⁻¹ and 190000 M⁻¹ s⁻¹ and 280000 M⁻¹ s⁻¹; in assay [4], 300000 M⁻¹ s⁻¹ and 200000 M⁻¹ s⁻¹; in [5], 130000 M⁻¹ s⁻¹ and 140000 M⁻¹ s⁻¹; in assay [6], 77000 M⁻¹ s⁻¹ and 79000 M⁻¹ s⁻¹ and 52000 M⁻¹ s⁻¹.
